This is one part of the list.
Tests used:
Test in all cases: glycan array binding signal (z-score within array); higher = stronger binding
Conditions in all cases: glycan notation: IUPAC condensed, linker removed
[1] = biological target: Gal(a1-3)[Gal(a1-4)]Gal(b1-4)GlcNAc
In short: (§1)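 Glycan array data came from 3228 arrays in the Consortium for Functional Glycomics database, and only arrays with an available protein sequence were kept. Glycan names were put into IUPAC-condensed notation, and columns mapping to the same glycan were averaged. The binding signal is a within-array Z-score, averaged across arrays of one protein sequence run at different concentrations or buffers and across linkers. A negative Z-score can be read as non-binding.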

[2] = biological target: Gal(a1-4)Gal(b1-3)GlcNAc(b1-2)Man(a1-3)[Gal(a1-4)Gal(b1-3)GlcNAc(b1-2)Man(a1-6)]Man(b1-4)GlcNAc(b1-4)GlcNAc
In short: as §1

[3] = biological target: Gal(a1-4)Gal(b1-4)Glc
In short: as §1

[4] = biological target: Gal(a1-4)Gal(b1-4)GlcNAc
In short: as §1

[5] = biological target: Gal(a1-4)Gal(b1-4)GlcNAc(b1-2)Man(a1-3)[Gal(a1-4)Gal(b1-4)GlcNAc(b1-2)Man(a1-6)]Man(b1-4)GlcNAc(b1-4)GlcNAc
In short: as §1

[6] = biological target: Gal(a1-4)Gal(b1-4)GlcNAc(b1-3)Gal(b1-4)Glc
In short: as §1

[7] = biological target: Gal(a1-4)GlcNAc
In short: as §1

[8] = biological target: Gal(a1-6)Glc
In short: as §1

[9] = biological target: Gal(b1-2)Gal
In short: as §1

[10] = biological target: Gal(b1-3)Gal
In short: as §1

[11] = biological target: Gal(b1-3)Gal(b1-4)GlcNAc
In short: as §1

[12] = biological target: Gal(b1-3)GalNAc
In short: as §1

[13] = biological target: Gal(b1-3)GalNAc(a1-3)[Fuc(a1-2)]Gal(b1-4)Glc
In short: as §1

[14] = biological target: Gal(b1-3)GalNAc(a1-3)[Fuc(a1-2)]Gal(b1-4)GlcNAc
In short: as §1

[15] = biological target: Gal(b1-3)GalNAc(b1-3)Gal
In short: as §1

[16] = biological target: Gal(b1-3)GalNAc(b1-3)Gal(a1-4)Gal(b1-4)Glc
In short: as §1

[17] = biological target: Gal(b1-3)GalNAc(b1-4)Gal(b1-4)Glc
In short: as §1

[18] = biological target: Gal(b1-3)GalNAc(b1-4)[Neu5Ac(a2-3)]Gal(b1-4)Glc
In short: as §1

[19] = biological target: Gal(b1-3)GlcNAc
In short: as §1

[20] = biological target: Gal(b1-3)GlcNAc(a1-3)Gal(b1-4)GlcNAc
In short: as §1

[21] = biological target: Gal(b1-3)GlcNAc(a1-6)Gal(b1-4)GlcNAc
In short: as §1

[22] = biological target: Gal(b1-3)GlcNAc(b1-2)Man
In short: as §1

[23] = biological target: Gal(b1-3)GlcNAc(b1-2)Man(a1-3)[Gal(b1-3)GlcNAc(b1-2)Man(a1-6)]Man(b1-4)GlcNAc(b1-4)GlcNAc
In short: as §1

[24] = biological target: Gal(b1-3)GlcNAc(b1-2)Man(a1-3)[Gal(b1-3)GlcNAc(b1-2)Man(a1-6)]Man(b1-4)GlcNAc(b1-4)[Fuc(a1-6)]GlcNAc
In short: as §1

[25] = biological target: Gal(b1-3)GlcNAc(b1-2)Man(a1-3)[GlcNAc(b1-4)][Gal(b1-3)GlcNAc(b1-2)Man(a1-6)]Man(b1-4)GlcNAc(b1-4)GlcNAc
In short: as §1

[26] = biological target: Gal(b1-3)GlcNAc(b1-2)[Gal(b1-3)GlcNAc(b1-6)]Man(a1-6)[Gal(b1-3)GlcNAc(b1-2)Man(a1-3)]Man(b1-4)GlcNAc(b1-4)GlcNAc
In short: as §1

[27] = biological target: Gal(b1-3)GlcNAc(b1-3)Gal(b1-3)GlcNAc
In short: as §1

[28] = biological target: Gal(b1-3)GlcNAc(b1-3)Gal(b1-4)Glc
In short: as §1

[29] = biological target: Gal(b1-3)GlcNAc(b1-3)Gal(b1-4)GlcNAc
In short: as §1

[30] = biological target: Gal(b1-3)GlcNAc(b1-3)Gal(b1-4)GlcNAc(b1-2)Man(a1-3)[Gal(b1-3)GlcNAc(b1-3)Gal(b1-4)GlcNAc(b1-2)Man(a1-6)]Man(b1-4)GlcNAc(b1-4)GlcNAc
In short: as §1

[31] = biological target: Gal(b1-3)GlcNAc(b1-3)Gal(b1-4)GlcNAc(b1-2)[Gal(b1-3)GlcNAc(b1-3)Gal(b1-4)GlcNAc(b1-6)]Man(a1-6)[Gal(b1-3)GlcNAc(b1-3)Gal(b1-4)GlcNAc(b1-2)Man(a1-3)]Man(b1-4)GlcNAc(b1-4)[Fuc(a1-6)]GlcNAc
In short: as §1

[32] = biological target: Gal(b1-3)GlcNAc(b1-3)Gal(b1-4)GlcNAc(b1-3)Gal(b1-4)GlcNAc(b1-2)[Gal(b1-3)GlcNAc(b1-3)Gal(b1-4)GlcNAc(b1-3)Gal(b1-4)GlcNAc(b1-6)]Man(a1-6)[Gal(b1-3)GlcNAc(b1-3)Gal(b1-4)GlcNAc(b1-3)Gal(b1-4)GlcNAc(b1-2)Man(a1-3)]Man(b1-4)GlcNAc(b1-4)[Fuc(a1-6)]GlcNAc
In short: as §1

[33] = biological target: Gal(b1-3)GlcNAc(b1-3)Gal(b1-4)GlcNAc(b1-6)[Gal(b1-3)GlcNAc(b1-3)]Gal(b1-4)Glc
In short: as §1

[34] = biological target: Gal(b1-3)GlcNAc(b1-3)Gal(b1-4)[Fuc(a1-3)]GlcNAc
In short: as §1

[35] = biological target: Gal(b1-3)GlcNAc(b1-3)Gal(b1-4)[Fuc(a1-3)]GlcNAc(b1-6)[Gal(b1-3)GlcNAc(b1-3)]Gal(b1-4)Glc
In short: as §1

[36] = biological target: Gal(b1-3)GlcNAc(b1-3)GalNAc
In short: as §1

[37] = biological target: Gal(b1-3)GlcNAc(b1-6)Gal(b1-4)GlcNAc
In short: as §1

[38] = biological target: Gal(b1-3)GlcNAc(b1-6)GalNAc
In short: as §1

B1: PX14375F-bfa-539-21-539 (Bacteroides fragilis) (protein)
chain: EDFLQKDPPSSPSQSVFWQKKSDFESALAGTYSVMYSGVFSQIMPCLDGLTDNAIVQHSEGTYGWAKTIAQGDLTPNQGGFVTDIYGNCYKGIARVHILMEQLDQYTGSDISADEKKFMLAQCKALRGYFYSWLYQCYKEVPVVTQSLDLNTMYQPKATRAEVLNRVMTDYDEAISELPDKLYSDSQTSGRFTVSAVKALKARILLFDAYDSNGKAISSKMEEVLTLLQSIKGYSLAARVRDNFISEKQLASPEIMFSVRFLRPNLTHSMDLYYGAWAVLDPTRNMVDAFECTDGKPWGESPLTVRPDESILYGNDDALKKAERAKMFMNRDRRLYESVNHSMMANFVDDGFKDEEVQVNESNNKGPTGFSALKYVQPTDVTPGYSTVSDADIVVLRYAHVLLMIAEAENEAHGATTTALNAINEVRTRSGQPAIEAGISQDDLRERIRNEWRIETCFEGLRYFQLKRWKLMDKRVNGVEDPAYPGYIKVYKPAFEFFPIPQSEIDKAGGVLKQDPAYE
[1]
  glycan array binding signal (z-score): 3.97
[2]
  glycan array binding signal (z-score): -0.572
[3]
  glycan array binding signal (z-score): -0.195
[4]
  glycan array binding signal (z-score): 0.607
[5]
  glycan array binding signal (z-score): 0.334
[6]
  glycan array binding signal (z-score): 0.15
[7]
  glycan array binding signal (z-score): -0.504
[8]
  glycan array binding signal (z-score): -1.11
[9]
  glycan array binding signal (z-score): 0.071
[10]
  glycan array binding signal (z-score): 0.178
[11]
  glycan array binding signal (z-score): 0.901
[12]
  glycan array binding signal (z-score): -0.151
[13]
  glycan array binding signal (z-score): -0.372
[14]
  glycan array binding signal (z-score): -0.104
[15]
  glycan array binding signal (z-score): 0.119
[16]
  glycan array binding signal (z-score): -0.705
[17]
  glycan array binding signal (z-score): -0.503
[18]
  glycan array binding signal (z-score): -0.415
[19]
  glycan array binding signal (z-score): -0.235
[20]
  glycan array binding signal (z-score): -0.727
[21]
  glycan array binding signal (z-score): -0.417
[22]
  glycan array binding signal (z-score): -0.06
[23]
  glycan array binding signal (z-score): 0.106
[24]
  glycan array binding signal (z-score): 1.23
[25]
  glycan array binding signal (z-score): 0.218
[26]
  glycan array binding signal (z-score): -0.343
[27]
  glycan array binding signal (z-score): -0.334
[28]
  glycan array binding signal (z-score): 0.015
[29]
  glycan array binding signal (z-score): -0.365
[30]
  glycan array binding signal (z-score): -0.069
[31]
  glycan array binding signal (z-score): 0.153
[32]
  glycan array binding signal (z-score): 2
[33]
  glycan array binding signal (z-score): -0.107
[34]
  glycan array binding signal (z-score): -0.084
[35]
  glycan array binding signal (z-score): -0.522
[36]
  glycan array binding signal (z-score): -0.912
[37]
  glycan array binding signal (z-score): 0.171
[38]
  glycan array binding signal (z-score): 0.066

Reference: the supplement of paper PMC8728848
